# ± gives the standard deviation of the averaged measurements. Over roughly 2,900 compounds, “NF-kB SEAP reporter activity, fold change vs agonist alone” has its median near 0.99; the highest 2% begin near 2.6. The list shows a part of the results.
# Columns and labels:
# RAW-Dual [1] = test: NF-kB SEAP reporter activity, fold change vs agonist alone; higher = enhanced NF-kB activity
# Method in brief: (§1)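 RAW-Dual macrophages (50,000 cells/well in DMEM, 384-well plates) received 50 nL of library stock by pin tool, then a PRR agonist 1 h later, and were kept at 37 °C, 5% CO2. After 20 hours, supernatant was read for IRF by QuantiLuc luminescence and for NF-κB by QuantiBlue absorbance at 620 nm. Reporter activity is fold change over agonist-alone wells. Cytotoxic wells had IncuCyte confluency below 70% of agonist controls in both mask sets.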
# RAW-Dual [2] = test: NF-kB SEAP reporter activity, fold change vs agonist alone; cytotoxicity flag (confluency mask): not cytotoxic; higher = enhanced NF-kB activity
# Method in brief: as §1
# RAW-Dual [3] = test: NF-kB SEAP reporter activity, fold change vs agonist alone; cytotoxicity flag (confluency mask): cytotoxic (confluency <70% of control); higher = enhanced NF-kB activity
# Method in brief: as §1
# [4] = library stock concentration (final ~1000-fold dilution): 10 mM, cytotoxicity flag (confluency mask): not cytotoxic, agonist: Imiquimod (TLR7) […]
# [5] = library stock concentration (final ~1000-fold dilution): 10 mM, cytotoxicity flag (confluency mask): not cytotoxic, agonist: MPLA (TLR4) […]
# [6] = agonist: ODN 1826 (TLR9) 0.5 ug/mL
# [7] = agonist: Pam2CSK4 (TLR2/6) 0.1 ug/mL
# [8] = agonist: Pam3CSK4 (TLR2/1) 0.1 ug/mL
# [9] = library stock concentration (final ~1000-fold dilution): 10 mM, cytotoxicity flag (confluency mask): cytotoxic (confluency <70% of control), agonist: Imiquimod (TLR7) […]
# [10] = library stock concentration (final ~1000-fold dilution): 10 mM, cytotoxicity flag (confluency mask): cytotoxic (confluency <70% of control), agonist: MPLA (TLR4) […]
smiles,measurement,setting,value
CC(=O)OC1(C(C)=O)CCC2C3C=C(C)C4=CC(=O)CCC4(C)C3CCC21C (centres undefined),NF-kB SEAP reporter activity,RAW-Dual [1]; [4],1.21
same,NF-kB SEAP reporter activity,RAW-Dual [1]; [5],1.14
Cc1noc(C)c1-c1ccc(-c2cc(C(N)=O)c(NC(N)=O)s2)c(O[C@H]2CCNC2)c1 (library stock concentration (final ~1000-fold dilution): 10 mM),NF-kB SEAP reporter activity,RAW-Dual [2]; agonist: LPS (TLR4) 0.1 ug/mL,0.649
same,NF-kB SEAP reporter activity,RAW-Dual [2]; [6],0.571
same,NF-kB SEAP reporter activity,RAW-Dual [2]; [7],0.32
same,NF-kB SEAP reporter activity,RAW-Dual [2]; [8],0.407
Cc1noc(C)c1-c1ccc(-c2cc(C(N)=O)c(NC(N)=O)s2)c(O[C@H]2CCNC2)c1,NF-kB SEAP reporter activity,RAW-Dual [1]; [4],0.638
same,NF-kB SEAP reporter activity,RAW-Dual [1]; [5],0.763
CC#CC1(O)CCC2C3CCC4=CC(=O)CCC4=C3C(c3ccc(N(C)C)cc3)CC21C (centres undefined),NF-kB SEAP reporter activity,RAW-Dual [1]; [4],1.07
same,NF-kB SEAP reporter activity,RAW-Dual [1]; [5],1.15
CC#CC1(O)CCC2C3CCC4=CC(=O)CCC4=C3C(c3ccc(N(C)C)cc3)CC21C (centres undefined) (library stock concentration (final ~1000-fold dilution): 10 mM),NF-kB SEAP reporter activity,RAW-Dual [2]; agonist: LPS (TLR4) 0.1 ug/mL,1.02
same,NF-kB SEAP reporter activity,RAW-Dual [2]; [6],0.694
same,NF-kB SEAP reporter activity,RAW-Dual [2]; [7],0.415
same,NF-kB SEAP reporter activity,RAW-Dual [2]; [8],0.549
CCCCCCCc1ccc(CCc2cccc(O)c2C(=O)O)cc1 (library stock concentration (final ~1000-fold dilution): 10 mM),NF-kB SEAP reporter activity,RAW-Dual [3]; agonist: LPS (TLR4) 0.1 ug/mL,0.6
same,NF-kB SEAP reporter activity,RAW-Dual [3]; [6],0.944
same,NF-kB SEAP reporter activity,RAW-Dual [3]; [7],0.826
same,NF-kB SEAP reporter activity,RAW-Dual [3]; [8],0.663
CCCCCCCc1ccc(CCc2cccc(O)c2C(=O)O)cc1,NF-kB SEAP reporter activity,RAW-Dual [1]; [9],1.19
same,NF-kB SEAP reporter activity,RAW-Dual [1]; [10],0.916
CC(C)(Sc1ccncc1-c1ccc(C#N)c2ccccc12)C(=O)O,NF-kB SEAP reporter activity,RAW-Dual [1]; [4],0.92
same,NF-kB SEAP reporter activity,RAW-Dual [1]; [5],1
CC(C)(Sc1ccncc1-c1ccc(C#N)c2ccccc12)C(=O)O (library stock concentration (final ~1000-fold dilution): 10 mM),NF-kB SEAP reporter activity,RAW-Dual [2]; agonist: LPS (TLR4) 0.1 ug/mL,1.08
same,NF-kB SEAP reporter activity,RAW-Dual [2]; [6],0.917
same,NF-kB SEAP reporter activity,RAW-Dual [2]; [7],1.02
same,NF-kB SEAP reporter activity,RAW-Dual [2]; [8],1.04
CC(C)(C)S(=O)(=O)c1ccc2nccc(Nc3n[nH]c4ccc(F)cc34)c2c1,NF-kB SEAP reporter activity,RAW-Dual [1]; [4],0.893 ± 0.12
same,NF-kB SEAP reporter activity,RAW-Dual [1]; [5],0.869 ± 0.056
CC(C)(C)S(=O)(=O)c1ccc2nccc(Nc3n[nH]c4ccc(F)cc34)c2c1 (library stock concentration (final ~1000-fold dilution): 10 mM),NF-kB SEAP reporter activity,RAW-Dual [2]; agonist: LPS (TLR4) 0.1 ug/mL,1.07 ± 0.071
same,NF-kB SEAP reporter activity,RAW-Dual [2]; [6],0.928 ± 0.1
same,NF-kB SEAP reporter activity,RAW-Dual [2]; [7],0.7208 ± 0.0011
same,NF-kB SEAP reporter activity,RAW-Dual [2]; [8],1.1 ± 0.022
CC=C1C(=O)CC2C3CCC4=CC(=O)CCC4(C)C3CCC12C (centres undefined) (library stock concentration (final ~1000-fold dilution): 10 mM),NF-kB SEAP reporter activity,RAW-Dual [2]; agonist: LPS (TLR4) 0.1 ug/mL,0.69
same,NF-kB SEAP reporter activity,RAW-Dual [2]; [6],0.408
same,NF-kB SEAP reporter activity,RAW-Dual [2]; [7],0.841
same,NF-kB SEAP reporter activity,RAW-Dual [2]; [8],0.508
CC=C1C(=O)CC2C3CCC4=CC(=O)CCC4(C)C3CCC12C (centres undefined),NF-kB SEAP reporter activity,RAW-Dual [1]; [4],0.402
same,NF-kB SEAP reporter activity,RAW-Dual [1]; [5],1.04
CC(C)c1cc2c(N3CCN(C4=NCC(C)(C)S4)CC3)ncnc2s1 (library stock concentration (final ~1000-fold dilution): 10 mM),NF-kB SEAP reporter activity,RAW-Dual [2]; agonist: LPS (TLR4) 0.1 ug/mL,1.4
same,NF-kB SEAP reporter activity,RAW-Dual [2]; [6],0.898
same,NF-kB SEAP reporter activity,RAW-Dual [2]; [7],0.929
same,NF-kB SEAP reporter activity,RAW-Dual [2]; [8],0.898
CC(C)c1cc2c(N3CCN(C4=NCC(C)(C)S4)CC3)ncnc2s1,NF-kB SEAP reporter activity,RAW-Dual [1]; [4],0.617
same,NF-kB SEAP reporter activity,RAW-Dual [1]; [5],1.02
CCC1OC(=O)C(C)C(OC2CC(C)(OC)C(O)C(C)O2)C(C)C(OC2OC(C)CC(N(C)C)C2O)C(C)(OC)CC(C)C(=O)C(C)C(O)C1(C)O (centres undefined) (library stock concentration (final ~1000-fold dilution): 10 mM),NF-kB SEAP reporter activity,RAW-Dual [2]; agonist: LPS (TLR4) 0.1 ug/mL,0.99
same,NF-kB SEAP reporter activity,RAW-Dual [2]; [6],0.929
same,NF-kB SEAP reporter activity,RAW-Dual [2]; [7],0.942
same,NF-kB SEAP reporter activity,RAW-Dual [2]; [8],0.932
CCC1OC(=O)C(C)C(OC2CC(C)(OC)C(O)C(C)O2)C(C)C(OC2OC(C)CC(N(C)C)C2O)C(C)(OC)CC(C)C(=O)C(C)C(O)C1(C)O (centres undefined),NF-kB SEAP reporter activity,RAW-Dual [1]; [4],0.947
same,NF-kB SEAP reporter activity,RAW-Dual [1]; [5],0.96
Cc1cncc(CN2CCC(=C3c4ccc(Cl)cc4CCc4cccnc43)CC2)c1.O=C(O)/C=C/C(=O)O,NF-kB SEAP reporter activity,RAW-Dual [1]; [9],1.02
same,NF-kB SEAP reporter activity,RAW-Dual [1]; [10],0.719
Cc1cncc(CN2CCC(=C3c4ccc(Cl)cc4CCc4cccnc43)CC2)c1.O=C(O)/C=C/C(=O)O (library stock concentration (final ~1000-fold dilution): 10 mM),NF-kB SEAP reporter activity,RAW-Dual [3]; agonist: LPS (TLR4) 0.1 ug/mL,0.652
same,NF-kB SEAP reporter activity,RAW-Dual [3]; [6],0.37
same,NF-kB SEAP reporter activity,RAW-Dual [3]; [7],0.456
same,NF-kB SEAP reporter activity,RAW-Dual [3]; [8],0.408
COc1cccc(CCc2ccccc2OCC(CN(C)C)OC(=O)CCC(=O)O)c1.Cl (centres undefined) (library stock concentration (final ~1000-fold dilution): 10 mM),NF-kB SEAP reporter activity,RAW-Dual [2]; agonist: LPS (TLR4) 0.1 ug/mL,1.33
same,NF-kB SEAP reporter activity,RAW-Dual [2]; [6],0.733
same,NF-kB SEAP reporter activity,RAW-Dual [2]; [7],1.03
same,NF-kB SEAP reporter activity,RAW-Dual [2]; [8],0.924
COc1cccc(CCc2ccccc2OCC(CN(C)C)OC(=O)CCC(=O)O)c1.Cl (centres undefined),NF-kB SEAP reporter activity,RAW-Dual [1]; [4],1.22
same,NF-kB SEAP reporter activity,RAW-Dual [1]; [5],1.03
Cl.NCCOc1ccc(Cl)cc1C(=O)Nc1ccc([N+](=O)[O-])cc1Cl,NF-kB SEAP reporter activity,RAW-Dual [1]; [4],1.31
same,NF-kB SEAP reporter activity,RAW-Dual [1]; [5],0.949
Cl.NCCOc1ccc(Cl)cc1C(=O)Nc1ccc([N+](=O)[O-])cc1Cl (library stock concentration (final ~1000-fold dilution): 10 mM),NF-kB SEAP reporter activity,RAW-Dual [2]; agonist: LPS (TLR4) 0.1 ug/mL,1.29
same,NF-kB SEAP reporter activity,RAW-Dual [2]; [6],0.59
same,NF-kB SEAP reporter activity,RAW-Dual [2]; [7],0.918
same,NF-kB SEAP reporter activity,RAW-Dual [2]; [8],0.91
CCCCCCCCCCCCCCCCOc1nc2ccc(C)cc2c(=O)o1 (library stock concentration (final ~1000-fold dilution): 2 mM),NF-kB SEAP reporter activity,RAW-Dual [2]; agonist: LPS (TLR4) 0.1 ug/mL,1.26
same,NF-kB SEAP reporter activity,RAW-Dual [2]; [6],1.03
same,NF-kB SEAP reporter activity,RAW-Dual [2]; [7],1.06
same,NF-kB SEAP reporter activity,RAW-Dual [2]; [8],0.981
CCCCCCCCCCCCCCCCOc1nc2ccc(C)cc2c(=O)o1,NF-kB SEAP reporter activity,"RAW-Dual [1]; library stock concentration (final ~1000-fold dilution): 2 mM, cytotoxicity flag (confluency mask): not cytotoxic, agonist: MPLA (TLR4) […]",1.05
CC(C)(C)c1nc(-c2ccc(NC(=O)Nc3cccc(C(F)(F)F)c3)c3ccccc23)c2c(N)nccn12,NF-kB SEAP reporter activity,RAW-Dual [1]; [9],0.139
same,NF-kB SEAP reporter activity,RAW-Dual [1]; [10],0.252
CC(C)(C)c1nc(-c2ccc(NC(=O)Nc3cccc(C(F)(F)F)c3)c3ccccc23)c2c(N)nccn12 (library stock concentration (final ~1000-fold dilution): 10 mM),NF-kB SEAP reporter activity,RAW-Dual [3]; agonist: LPS (TLR4) 0.1 ug/mL,0.488
same,NF-kB SEAP reporter activity,RAW-Dual [3]; [6],0.163
same,NF-kB SEAP reporter activity,RAW-Dual [3]; [7],0.0888
same,NF-kB SEAP reporter activity,RAW-Dual [3]; [8],0.136
